Reference: the RNAGym collection of RNA variant scans (doi:10.7554/elife.90254)
Read counts are not given, so values of variants with three or more changes are uncertain.

B1: LINE1-mini (parent)
chain: GGCAGAGCUCAACACAGCGUGGCAAAGUGGCUGUGGCUAGACUGCC

Variants of: B1
Test: self-cleavage, relative activity (ratio to wild type); higher = more cleavage; in vitro, sequencing; the parent is a self-cleaving ribozyme
With GUCAGAGCUCAACACAGCGUGCCAAAGUGGCUGUGGCAAGACUGCC [G2U G22C U38A] the self-cleavage was 0.05. With GGCAGAGCUCAACACAUCGUGGCAAAAUGGCUGUGGCUAGAAUGCC [G17U G27A C42A] the self-cleavage was 0.03. Work on GGCAGAGCUCAACACAGCAUGGCAAAUUGGCUGUGCCUAGACUGCC [G19A G27U G36C] yielded a self-cleavage of 0.06. For GGCAGAGUUCAACACAGCCUGGCUAAUUGGCUGUGGCUAGACUGCC [C8U G19C A24U G27U], the self-cleavage was 0.15. GUCAGAGCUAAACACAGCGUGGCAAAGUGUCUGUGGCUAACCUGCC [G2U C10A G30U G40A A41C] gave a self-cleavage of 0. In the case of UGCAGAUCUAAACACAGCGUGGCAAAGUGGCUGUGGUUAGACUGCC [G1U G7U C10A C37U], the self-cleavage is reported as 0.01. CGCAGAGCUCAACACAGCGUGGCAAAGUGGCUGUGGCUAGGCUGGC [G1C A41G C45G] showed a self-cleavage of 0.01. For GGCAGAGCUCAGCACAGCGUGGCGAAGUGGUUGUGGCUAGACUGCC [A12G A24G C31U], the self-cleavage was 0.1. GGCACAGCUCAACACAGCGUGGCAAAGUUGCUGUGGAUAGACUUAC [G5C G29U C37A G44U C45A] gave a self-cleavage of 0.07. With GACGUAGGUCAACACAGCGUGGCAAAGUGGCUGUGGCUAGAAUGCC [G2A A4G G5U C8G C42A] the self-cleavage was 0.03. Variant GGCAGAGCUCCACACAGCGUGGCAAAGUGUCUGUGGCUAUACUUCC [A11C G30U G40U G44U] has a self-cleavage of 0.01. Variant GGCAGAGCUCAGCACAGCGGGGCAAAGUGGUUGUGGCUAGGCUGCC [A12G U20G C31U A41G] has a self-cleavage of 0.01. For GGCAGAGCUCUAUACAACGUGGCAAAGUGGCUGUGGCUAGACUACC [A11U C13U G17A G44A], the self-cleavage was 0.02. Work on AGCGGAGCUCAACACAGCGUUGCAAAGUGGCUGUGGCUAGACUGCC [G1A A4G G21U] yielded a self-cleavage of 0.14. For GGCAGAGGUCAACACAGCGUGGCAAACUUGCUGUGGCUAGACUACC [C8G G27C G29U G44A], the self-cleavage was 0.02. GGCAGAGCUAAACACAGAGUGGCAAAGUGACUGGGGCUAGACUGCC [C10A C18A G30A U34G] gave a self-cleavage of 0.02. Work on GGCAGAGCUCAACACAGCGUGGCUUAGUGGCUGUGGCUAGACUGAC [A24U A25U C45A] yielded a self-cleavage of 0.85. GGCGGAGCUUAACACAGCGUAGCAAAGUGGGUGUGACUAGACUGCA [A4G C10U G21A C31G G36A C46A] gave a self-cleavage of 0.06. With GCCAGAACUUAACACAGCGUGGCAAAUUGGCUGUGGCCAGACUGAC [G2C G7A C10U G27U U38C C45A] the self-cleavage was 0.18. Work on GGCAGAGCUCAUCACAGCGUGCCAAAGUGGCUAUCGCUAGACUACC [A12U G22C G33A G35C G44A] yielded a self-cleavage of 0.01. For GGCGGAGCUCAUCGCAGCGUGGCAAACUGGCUGUGGCUAGACUGCC [A4G A12U A14G G27C], the self-cleavage was 0.11. Variant GGAAUAUCUCAACAGUGCGUGCCAAAGUGGCUGUGGCUAGACUGCC [C3A G5U G7U C15G A16U G22C] has a self-cleavage of 0.08. GGCAGAGCCUAACACAGCGUGGCAAAGUGGCUUUGGCUAGUCUGCC [U9C C10U G33U A41U] showed a self-cleavage of 0.06. Variant GGCAGUGCGCAACACAGCGUGGCAAAUUGGCAGUGGCUAGACUGCA [A6U U9G G27U U32A C46A] has a self-cleavage of 0.03. For GGCAGAGCUCAACAUAGCGUGGAAAAGUGGAUGUGGCUAGACUGCC [C15U C23A C31A], the self-cleavage was 0.03. Work on GGCGAAGCUCAACACAGCGUGGCAAAGUCGCUGUGGCUAGACUGCC [A4G G5A G29C] yielded a self-cleavage of 0.06. With GGCAAAGCUUCACACAGCGUGGCAAAGUGGCUGUGGCUAGUCUCCC [G5A C10U A11C A41U G44C] the self-cleavage was 0.03. GGCAGAGCUCAACUCAGCGUGCCAAAUUGGCUGCGGCUAGACUACC [A14U G22C G27U U34C G44A] showed a self-cleavage of 0.02. GGCAGAGCUUAACACAGCGUGUCAAAGUGGCUGUGGCUAGACUACC [C10U G22U G44A] showed a self-cleavage of 0.19. GGCAGAGCUCAACACAGCGUGAUAAAGUGGCUGUGGGUAGACUGAC [G22A C23U C37G C45A] showed a self-cleavage of 0.02. In the case of GGCGGAGCUCAACGCAGCGUGGCAGAGUGGCUGUGGCUAGACUGCC [A4G A14G A25G], the self-cleavage is reported as 0.75. For GGCAGAGCUCAACAUAGCAUGGCAAAGUGGCUGUGGAUAGACAGCC [C15U G19A C37A U43A], the self-cleavage was 0.12. With GGCAGAUCUCAACACAAAGAGGCAAUGUGACUGUGGCUAGACUGCC [G7U G17A C18A U20A A26U G30A] the self-cleavage was 0.04. For GGCAGAGUUCAACACAGCGUGCCAAUGUGGAUGUGGCUAGACUGCC [C8U G22C A26U C31A], the self-cleavage was 0.25. For GAGAGAGCUCAACACAGCGUGGCAAAGUGGCUAUGGCUAGACUGCC [G2A C3G G33A], the self-cleavage was 0.34. Work on GGCAGAGCUCAACACAGCGUGGCAAAGUAGCGGUGGCUAUACAGCC [G29A U32G G40U U43A] yielded a self-cleavage of 0.09. GGCAGAGCUCAACACAGCGUGGCUAAGUGGGUGUGGCUCGACUGAC [A24U C31G A39C C45A] gave a self-cleavage of 0.03. Work on GGCAGAGCUCCAUACAGCGUGGCAAAGUGGCUGUGGCUAGAUUGAC [A11C C13U C42U C45A] yielded a self-cleavage of 0.02. Variant GGUAGUGCUCAACACAGCGUGGCGAAGUGGCUGUGGCUAUACUGCC [C3U A6U A24G G40U] has a self-cleavage of 0.34. GGCACAGCUCAAUACAGCGUGGCAAACUGGCUGUGGCUAGGCUGCC [G5C C13U G27C A41G] gave a self-cleavage of 0.03. Variant UGCAGAGCUCAACAAAGCGUGGCUAAGUGGCUGUGUCUAGACUGCC [G1U C15A A24U G36U] has a self-cleavage of 0.14. In the case of GGGAGAGCUCAACACAGCGUGGUAAAGUGGCUGUGGCUAGACUACC [C3G C23U G44A], the self-cleavage is reported as 0.28. GACAGAGCUCAACACAGCGUGGUAAAGUGGCUGUGGUUAGACUGCC [G2A C23U C37U] showed a self-cleavage of 0.07. In the case of GGCUGAGCUCAACACAGCGUGGCAAAGUGGCGGUGGCUACACUGCC [A4U U32G G40C], the self-cleavage is reported as 0.07. GGCAGAGCUCAACACAGCGUGGCAAAGUUGCGAUGGCUAGACUGCC [G29U U32G G33A] gave a self-cleavage of 0.1. With GGCAGAUCUCAACACAGCGUGGCAAAGUGGUUGUGGCUAGACUGAC [G7U C31U C45A] the self-cleavage was 0.1. Work on GGCAGAGCUCAACACAGCGUCGCAUAGUGGCUGUGGCUAGAUUGCC [G21C A25U C42U] yielded a self-cleavage of 0.1. In the case of GGCAGAGCUCAACAGAGCGAGGCAAAGUGGGUGUGGCUAGACUGCC [C15G U20A C31G], the self-cleavage is reported as 0.02. For GGCAGAGCUCAACACAGCGUGGCAAAUUGGCUGUGGCUCGACUGAC [G27U A39C C45A], the self-cleavage was 0.06. Work on GGAAGAGCUCUACACAGCGUGGCAAAGUGACUGUGGCUAGACUGCC [C3A A11U G30A] yielded a self-cleavage of 0.08. For GGCGGAGCUCAACACAGCGUGGCAAAGUGGCUGUUGCUACACUGCC [A4G G35U G40C], the self-cleavage was 0.3. In the case of UGCAGAGCUCAACACAAUGUGGCAAAGUGGCUGUGGAUAGACUGCC [G1U G17A C18U C37A], the self-cleavage is reported as 0.01. Variant GGCAGAGCUCAACACAGCGUGGAAAAGUAGCUGUGGCUAGAGUGCC [C23A G29A C42G] has a self-cleavage of 0. For GGCAGAGCUCAACACAGUGUGGCAGAAUGGCCGUGGCUAGACUGUC [C18U A25G G27A U32C C45U], the self-cleavage was 0.01. GACAGGGCUGAACACAGCGUGGCAAAGUGGCUGUGGCUAGACUGCC [G2A A6G C10G] gave a self-cleavage of 0.01. GGCAGAGGUCAACACAGGGUGGCAAAGUGGCUGUGGCGAGACGGCC [C8G C18G U38G U43G] gave a self-cleavage of 0.02.
